# The list shows a part of the results. Sequences were assembled here from the parent chain. Values near 0.05 are background.
# B1: TEV protease; numbered along this chain (parent)
# chain: MGESLFKGPRDYNPISSSICHLTNESDGHTTSLYGIGFGPFIITNKHLFRRNNGTLVVQSLHGVFKVKDTTTLQQHLVDGRDMIIIRMPKDFPPFPQKLKFREPQREERICLVTTNFQTKSMSSMVSDTSCTFPSGDGIFWKHWIQTKDGQCGSPLVSTRDGFIVGIHSASNFTNTNNYFTSVPKNFMELLTNQEAQQWVSGWRLNADSVLWGGHKVFMVKPEEPFQPVKEATQL
# Variants of: B1
# Assay: raw area under fraction-flipped curve 0-4 h after induction (AUC4h, not background-subtracted), DNA-recorder readout of cleavage of the substrate (dimensionless); higher = more cleavage of the substrate by the protease variant
# Conditions: temperature: 34 °C; time window: 0-4 h after rhamnose induction
# 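Also: Bxb1 expression induced with 0.2% (w/v) L-rhamnose at OD600 near 0.5, cultures sampled hourly, flipped fraction per protease–substrate barcode pair counted by paired-end Illumina sequencing.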
Variant,area with substrate ENAYFQS,area with substrate ENCYFQS,area with substrate ENDYFQS,area with substrate ENEYFQS,area with substrate ENGYFQS,area with substrate ENHYFQS,area with substrate ENIYFQS,area with substrate ENKYFQS,area with substrate ENMYFQS,area with substrate ENPYFQS,area with substrate ENQYFQS,area with substrate ENRYFQS,area with substrate ENSYFQS,area with substrate ENTYFQS,area with substrate ENVYFQS,area with substrate ENWYFQS,area with substrate ENYYFQS,area with substrate ENFYFQS,area with substrate ENNYFQS
MGESLFKGPRDYNPISSSICHLTNESDGHTTSLYGIGFGPFIITNKHLFRRNNGTLVVQSLHGVFKVKDTTTLQQHLVDGRDMIIIRMPKDFPPFPQKLKFREPQREERICLVTTNFQTKSMSSMVSDTSCTFPSGDGIFWKHWIQTKDGQCGSPLVSTRDGFIVGIHSASNFTNTNNYFTSVPKNFMELLTNQEAQQWVSGWRLNADSVLWGGHKVFMVKPEERFQPVKEATQL [P225R],0.0581,0.0706,0.0663,0.0675,0.0581,0.0645,0.092,0.0537,0.0741,0.0289,0.0544,0.0604,0.063,0.0658,0.068,0.0526,0.0652,–,–
MGESLFKGPRDYNPISSSICHLTNESDGHTTSLYGIGFGPFIITNKHLFRRNNGTLVVQSLHGVFKVKDTTTLQQHLVDGRDMIIIRMPKDFPPFPQKLKFREPQREERICLVTTNFQTKSMSSMVSDTSCTFPSGDGIFWKHWIQTKDGQCGSPLVSTRDGFIVGIHSASNFTNTNNYFTSVPKNFMELLTNQEAQQWVSGWRLNADSVLWGGHKVFMVKPEEWFQPVKEATQL [P225W],0.057,–,0.0593,–,–,–,0.116,0.0765,0.0677,–,–,–,0.0608,0.0763,0.074,–,0.0837,0.0446,–
MGESLFAGPRDYNPISSSICHLTNESDGHTTSLYGIGFGPFIITNKHLFRRNNGTLVVQSLHGVFKVKDTTTLQQHLVDGRDMIIIRMPKDFPPFPQKLKFREPQREERICLVTTNFQTKSMSSMVSDTSCTFPSGDGIFWKHWIQTKDGQCGSPLVSTRDGFIVGIHSASNFTNTNNYFTSVPKNFMELLTNQEAQQWVSGWRLNADSVLWGGHKVFMVKPEEPFQPVKEATQL [K7A],–,0.0697,0.0695,0.0645,0.106,–,–,–,0.0511,0.0545,0.068,–,0.0517,0.0657,–,–,0.0751,–,–
MGESLFKGPRDYNPISSSICHLTNESDGHTTSLYGIGFGPFIITNKHLFRRNNGTLVVQSLHGVFKVKDTTTLQQHLVDGRDMIIIRMPKDFPPFPQKLKFREPQREERICLVTTNFQTKSMSSMVSDTSCTFPSGDGIFWKHWIQTKDGQCGSPLVSTRDGFIVGIHSASNFTNTNNYFTSVPKNFMELLTNQEAQQWVSGWRLNADSVLWGGHKVFMVKPEEPFQPYKEATQL [V229Y],0.0638,0.0611,0.0594,0.0683,0.0545,–,0.115,–,0.0882,–,0.0646,0.0606,0.0621,0.0368,0.0644,0.0786,0.0634,0.0733,–
MGESLFKGPRDYNPISSSICHLTNESDGHTTSLYGIGFGPFIITNKHLFRRNNGTLVVQSLHGVFKVKDTTTLQQHLVDGRDMIIIRMPKDFPPFPQKLKFREPQREERICLVTTNFQTKSMSSMVSDTSCTFPSGDGIFWKHWIQTKDGQCGSPLVSTRDGFIVGIHSASNFTNTNNYFTSVPKNFMELLTNQEAQQWVSGWRLNADSVLWGGHKVFMVKPEEPFQPHKEATQL [V229H],0.0582,0.0779,0.0706,0.0641,0.0474,0.0641,–,–,–,–,0.0622,0.0674,0.0587,0.064,0.0665,0.0481,0.0055,0.0543,–
MGESLFKGPRDYNPISSSICHLTNESDGHTTSLYGIGFGPFIITNKHLFRRNNGTLVVQSLHGVFKVKDTTTLQQHLVDGRDMIIIRMPKDFPPFPQKLKFREPQREERICLVTTNFQTKSMSSMVSDTSCTFPSGDGIFWKHWIQTKDGQCGSPLVSTRDGFIVGIHSASNFTNTNNYFTSVPKNFMELLTNQEAQQWVSGWRLNADSVLWGGHKVFMVKPEEPFQPLKEATQL [V229L],0.0542,0.0694,0.0524,0.0652,0.0523,0.0571,0.14,0.0681,–,–,0.0558,0.0598,0.0631,0.0653,–,0.0478,–,0.0601,0.0614
MGESLFKGPRDYNPISSSICHLTNESDGHTTSLYGIGFGPFIITNKHLFRRNNGTLVVQSLHGVFKVKDTTTLQQHLVDGRDMIIIRMPKDFPPFPQKLKFREPQREERICLVTTNFQTKSMSSMVSDTSCTFPSGDGIFWKHWIQTKDGQCGSPLVSTRDGFIVGIHSASNFTNTNNYFTSVPKNFMELLTNQEAQQWVSGWRLNADSVLWGGHKVFMVKPEEPFQPVKMATQL [E231M],0.059,0.0695,–,0.0499,0.0579,–,0.119,0.0787,0.0568,0.0587,0.0639,0.0609,0.0482,0.0737,0.0728,–,–,0.0603,–
MGESLFKGPRDYNPISSSICHLTNESDGHTTSLYGIGFGPFIITNKHLFRRNNGTLVVQSLHGVFKVKDTTTLQQHLVDGRDMIIIRMPKDFPPFPQKLKFREPQREERICLVTTNFQTKSMSSMVSDTSCTFPSGDGIFWKHWIQTKDGQCGSPLVSTRDGFIVGIHSASNFTNTNNYFTSVPKNFMELLTNQEAQQWVSGWRLNADSVLWGGHKVFMVKPEEPFQPVKGATQL [E231G],0.0487,0.0489,0.0651,0.0646,0.0839,0.0614,0.102,0.0647,–,0.0538,0.0471,0.043,0.0665,0.0593,0.0994,0.0638,0.0484,0.0618,0.0628
MGESLFKGPRDYNPISSSICHLTNESDGHTTSLYGIGFGPFIITNKHLFRRNNGTLVVQSLHGVFKVKDTTTLQQHLVDGRDMIIIRMPKDFPPFPQKLKFREPQREERICLVTTNFQTKSMSSMVSDTSCTFPSGDGIFWKHWIQTKDGQCGSPLVSTRDGFIVGIHSASNFTNTNNYFTSVPKNFMELLTNQEAQQWVSGWRLNADSVLWGGHKVFMVKPEEPFQPVGEATQL [K230G],0.0879,0.0955,0.0753,0.0608,0.0483,0.0473,0.131,–,0.0867,0.0549,0.0583,0.0485,–,–,0.0911,0.0041,0.0558,0.0532,–

# — the supplement of paper PMC12217912
